Hit rate of the full screen: of about 310,000 compounds, about 2,200 (0.71%) showed an effect of 50% or more. The effect is printed as a negative number. This is one part of the list.

The assay deals with human ether-à-go-go-related gene (hERG) potassium channel (human, UniProt Q12809). As to the kind of experiment: primary screen, population patch clamp on CHO cells stably expressing hERG.
Sequence of human ether-à-go-go-related gene (hERG) potassium channel (Q12809 whole entry, looked up): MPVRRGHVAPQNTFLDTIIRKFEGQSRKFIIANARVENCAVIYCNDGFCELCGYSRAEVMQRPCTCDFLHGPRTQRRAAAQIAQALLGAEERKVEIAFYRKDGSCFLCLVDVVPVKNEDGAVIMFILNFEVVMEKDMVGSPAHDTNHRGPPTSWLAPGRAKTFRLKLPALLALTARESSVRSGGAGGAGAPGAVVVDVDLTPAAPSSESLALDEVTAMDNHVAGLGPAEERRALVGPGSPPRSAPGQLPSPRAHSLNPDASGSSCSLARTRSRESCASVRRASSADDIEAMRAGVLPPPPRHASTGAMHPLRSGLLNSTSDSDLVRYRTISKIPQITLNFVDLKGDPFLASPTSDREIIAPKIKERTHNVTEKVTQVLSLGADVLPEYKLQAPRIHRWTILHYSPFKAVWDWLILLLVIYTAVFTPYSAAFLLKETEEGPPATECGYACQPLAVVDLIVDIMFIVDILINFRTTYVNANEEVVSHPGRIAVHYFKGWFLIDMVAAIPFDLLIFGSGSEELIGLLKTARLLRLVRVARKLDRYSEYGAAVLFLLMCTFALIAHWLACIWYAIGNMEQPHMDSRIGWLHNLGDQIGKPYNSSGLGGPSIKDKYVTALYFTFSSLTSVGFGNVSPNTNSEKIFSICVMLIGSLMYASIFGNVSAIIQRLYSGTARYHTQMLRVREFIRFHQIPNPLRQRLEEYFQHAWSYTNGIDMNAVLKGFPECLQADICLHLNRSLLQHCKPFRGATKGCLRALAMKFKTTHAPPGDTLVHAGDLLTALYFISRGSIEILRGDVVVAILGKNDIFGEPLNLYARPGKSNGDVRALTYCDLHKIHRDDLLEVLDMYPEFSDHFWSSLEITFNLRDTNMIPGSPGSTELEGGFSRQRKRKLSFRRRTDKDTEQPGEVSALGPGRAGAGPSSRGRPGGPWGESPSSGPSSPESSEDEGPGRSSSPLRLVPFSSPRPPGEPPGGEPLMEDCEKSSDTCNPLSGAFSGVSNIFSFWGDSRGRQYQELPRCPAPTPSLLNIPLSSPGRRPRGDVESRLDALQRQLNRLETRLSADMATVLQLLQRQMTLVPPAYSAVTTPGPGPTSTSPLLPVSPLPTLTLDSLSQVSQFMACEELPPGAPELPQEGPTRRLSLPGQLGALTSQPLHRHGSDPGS
Consider `COc1cccc(-c2cc(C(=O)Nc3cccc(O)c3)no2)c1`, for which the “hERG current change (%, negative = inhibition) at 1uM” value was 15.1%.

On to `CCOC(=O)c1c(-c2ccco2)csc1NC(=O)COC(=O)c1cnccn1`, for which the “hERG current change (%, negative = inhibition) at 1uM” value is reported as 19.1%.

`CCN1CCN(CC(=O)Nc2nc3ccc(OC)cc3s2)CC1.O=C(O)C(=O)O`: the “hERG current change (%, negative = inhibition) at 1uM” value was -5.3%.

Take `Cc1cccc(C(=O)NCc2nnc(SC(C)C(=O)Nc3nnc(C)s3)n2C)c1` (stereo not drawn): the “hERG current change (%, negative = inhibition) at 1uM” value is listed as 6.15%.

For `NNC(=O)/C(=C/c1cccs1)NC(=O)c1ccccc1Cl`, the “hERG current change (%, negative = inhibition) at 1uM” value turned out to be 5.81%.

Consider `CCn1cc(C(=O)O)c(=O)c2cc(F)c(N3CCN(C(=S)NC(=O)c4c(OC)cccc4OC)CC3)cc21`, for which the “hERG current change (%, negative = inhibition) at 1uM” value is on record as 12.2%.

In the case of `CCOc1cc(NS(=O)(=O)c2ccc(NC(C)=O)cc2)c(OCC)cc1NC(=O)c1cccs1`, the “hERG current change (%, negative = inhibition) at 1uM” value is reported as 13.5%.

`CN(Cc1ccc(F)cc1)C(=O)C(c1ccccc1)c1ccccc1`: the “hERG current change (%, negative = inhibition) at 1uM” value is given as 9.21%.

Consider `O=C(O)[C@H](Cc1ccccc1)N1C(=O)c2ccncc2C1=O`, for which the “hERG current change (%, negative = inhibition) at 1uM” value is on record as 19.2%.

For the compound `O=C1OC(Nc2nccs2)c2ccccc21` (stereo not drawn), the “hERG current change (%, negative = inhibition) at 1uM” value is given as 13.5%.

In the case of `CCCn1nc(C(=O)Nc2nc(-c3ccccn3)cs2)c2ccccc2c1=O`, the “hERG current change (%, negative = inhibition) at 1uM” value came out at 11.2%.

For `CC(C)O.O=C(O)c1cc(S(=O)(=O)Nc2ccc(N3CCCCC3)cc2)ccc1Cl`, the “hERG current change (%, negative = inhibition) at 1uM” value worked out at 9.06%.

For `O=C(Nc1cccc(Cl)c1N1CCCC1)c1cccc(-c2cc3ccccc3oc2=O)c1`, the “hERG current change (%, negative = inhibition) at 1uM” value is -1.8%.

Consider `CCOC(=O)C1SC2(C(F)(F)F)CC1(O)c1c(C)cc(C)nc1O2` (stereo not drawn), for which the “hERG current change (%, negative = inhibition) at 1uM” value is -1.85%.

On to `Cc1ccc(C)n1-c1ccc(NC(=O)c2ccccc2)cc1`, for which the “hERG current change (%, negative = inhibition) at 1uM” value is 1.19%.

Regarding `COC(=O)c1ccccc1NC(=O)c1ccc2c(c1)OCCO2`, the “hERG current change (%, negative = inhibition) at 1uM” value was 7.74%.

For the compound `O=C(CNC(=O)c1ccc(Cl)c([N+](=O)[O-])c1)OCN1C(=O)c2ccccc2C1=O`, the “hERG current change (%, negative = inhibition) at 1uM” value was 19.4%.

Regarding `CC(=O)Nc1cc(NC(C)=O)ncn1`, the “hERG current change (%, negative = inhibition) at 1uM” value is 11.4%.

Turning to `CC(=O)Nc1ccccc1-c1nn[nH]n1`, the “hERG current change (%, negative = inhibition) at 1uM” value amounted to 1.42%.

Take `Cc1sc2ncnc(SCC(=O)Nc3ncccc3O)c2c1C`: the “hERG current change (%, negative = inhibition) at 1uM” value is 7.42%.

Turning to `CC(C)c1ccccc1OCCNC(=O)c1cncc(Br)c1`, the “hERG current change (%, negative = inhibition) at 1uM” value is on record as -3.2%.

Turning to `COc1ccccc1CNC(=O)c1cccc2c1C(=O)N(Cc1cccnc1)C2`, the “hERG current change (%, negative = inhibition) at 1uM” value stood at 5.03%.

For `COc1ccccc1/C=C(/C#N)C(=O)O`, the “hERG current change (%, negative = inhibition) at 1uM” value is on record as 18.7%.

`Cc1cc(C)cc(C(=O)NC(CC(N)=O)c2ccc(NCC3CC3)c([N+](=O)[O-])c2)c1` (stereo not drawn): the “hERG current change (%, negative = inhibition) at 1uM” value is recorded as -1.16%.

In the case of `Cc1ccc(-c2nc(N)sc2CC(=O)OCC(=O)NCCC(C)C)cc1`, the “hERG current change (%, negative = inhibition) at 1uM” value is on record as -1.99%.

Consider `COc1ccc(N2CCN(c3ccc(S(=O)(=O)N(C(C)C)C(C)C)cn3)CC2)cc1`, for which the “hERG current change (%, negative = inhibition) at 1uM” value is reported as 13.7%.

Take `Cc1cc(C)c2c(=O)[nH]c(SCC(=O)NCc3ccccc3)nc2n1`: the “hERG current change (%, negative = inhibition) at 1uM” value worked out at 9.7%.

With `CC(C)NCC(O)c1ccc2ccccc2c1.Cl` (stereo not drawn), the “hERG current change (%, negative = inhibition) at 1uM” value worked out at 12%.

On to `CCOC(=O)C1=C(N)Oc2c(c(=O)oc3ccccc23)C12C(=O)N(C)c1ccccc12` (stereo not drawn), for which the “hERG current change (%, negative = inhibition) at 1uM” value is on record as 8.75%.

Turning to `O=C(O)c1ncn(Cc2ccccc2)c1C(=O)O`, the “hERG current change (%, negative = inhibition) at 1uM” value was 11.2%.

As to `CCOC(=O)C1CCCN(CC(O)COc2ccccc2C(C)=O)C1.Cl` (stereo not drawn), the “hERG current change (%, negative = inhibition) at 1uM” value is -6.92%.

`Cc1ccc2[nH]c(=O)c(CN3CCCCC3)c(-c3ccccc3)c2c1`: the “hERG current change (%, negative = inhibition) at 1uM” value is -2.24%.

Take `Cc1ccc(C(=O)O)cc1-c1ccc(/C=C2\SC(=O)N(CC(=O)Nc3ccc4c(c3)OCO4)C2=O)o1`: the “hERG current change (%, negative = inhibition) at 1uM” value came to 1.76%.

On to `c1cncc(-c2noc(CC3CCCCC3)n2)c1`, for which the “hERG current change (%, negative = inhibition) at 1uM” value was 4.18%.

`Oc1cccc(NC(=S)N=Nc2c(O)[nH]c3ccc(Br)cc23)c1`: the “hERG current change (%, negative = inhibition) at 1uM” value amounted to 12.5%.

`COc1ccc(-n2nc(C)c3sc(C)nc3c2=O)cc1`: the “hERG current change (%, negative = inhibition) at 1uM” value is recorded as 11.1%.

Consider `CN(Cc1ccon1)Cc1cn[nH]c1-c1ccc(-c2ccccc2)cc1`, for which the “hERG current change (%, negative = inhibition) at 1uM” value is on record as 8.74%.

Take `NC(=O)C1CCN(C(=O)C2CC(=O)N(c3ccc(F)cc3)C2)CC1` (stereo not drawn): the “hERG current change (%, negative = inhibition) at 1uM” value is given as 13.6%.

As for `Cc1cc(C(=O)NP(=O)(N2CCOCC2)N2CCOCC2)c(C)n1-c1ccc(Br)cc1`, the “hERG current change (%, negative = inhibition) at 1uM” value was 12.9%.

For `O=C1CC(c2ccccc2)n2nc(NS(=O)(=O)c3ccccc3)nc2N1` (stereo not drawn), the “hERG current change (%, negative = inhibition) at 1uM” value was -1.49%.

For `CN(Cc1c(F)cccc1Cl)C(=O)CCc1c[nH]c2ccccc12`, the “hERG current change (%, negative = inhibition) at 1uM” value is 7.64%.

In the case of `Cc1ccccc1NC(=S)N(Cc1ccco1)C(C)c1cccs1` (stereo not drawn), the “hERG current change (%, negative = inhibition) at 1uM” value came out at 4.51%.

As for `Cc1cc(C)nc(N(C#N)Cc2ccccc2Cl)n1`, the “hERG current change (%, negative = inhibition) at 1uM” value came to 7.42%.

As for `Cn1cc(C=C2C(=O)OC3(CCCCC3)OC2=O)c2ccccc21`, the “hERG current change (%, negative = inhibition) at 1uM” value is on record as 19%.

For the compound `CCC1(c2ccccc2)NC(=S)N(c2cccc(C)c2C)N1` (stereo not drawn), the “hERG current change (%, negative = inhibition) at 1uM” value is reported as 11%.

Regarding `C=CCNC(=O)c1c(CSc2ccc(Cl)cc2)noc1C(=O)NCc1ccccc1`, the “hERG current change (%, negative = inhibition) at 1uM” value was 0.625%.

As to `CC1(C)Cc2ccccc2C(=NC(Cc2ccccc2)C(=O)O)N1` (stereo not drawn), the “hERG current change (%, negative = inhibition) at 1uM” value was found to be 8.45%.

With `CCCn1nc(NS(=O)(=O)c2ccccc2[N+](=O)[O-])c2cc3ccccc3nc21`, the “hERG current change (%, negative = inhibition) at 1uM” value was 4.03%.

As to `CSCC(=O)N1CCC(n2nccc2NC(=O)CCCc2ccccc2)CC1`, the “hERG current change (%, negative = inhibition) at 1uM” value is recorded as -11.1%.

Turning to `Cc1ccc(NC(=O)CNC(=O)OCc2ccccc2)cc1C`, the “hERG current change (%, negative = inhibition) at 1uM” value came out at 4.09%.

In the case of `COc1ccc(CC(=O)Nc2cccc(C(C)=O)c2)cc1S(=O)(=O)N1CCOCC1`, the “hERG current change (%, negative = inhibition) at 1uM” value came out at 17.1%.

Regarding `COc1ccc(/C=C/c2nnc(NC(=O)COc3ccccc3)s2)cc1`, the “hERG current change (%, negative = inhibition) at 1uM” value was 14%.

Turning to `COc1ccc2c(c1)sc1nc(-c3ccccc3)cn12`, the “hERG current change (%, negative = inhibition) at 1uM” value is on record as 0.541%.

In the case of `COc1cc(CC(=O)Nc2nc(C)cs2)cc(OC)c1OC`, the “hERG current change (%, negative = inhibition) at 1uM” value was found to be 10.9%.

Turning to `O=c1cnnc(Nc2ccc(F)cc2)[nH]1`, the “hERG current change (%, negative = inhibition) at 1uM” value turned out to be 5.98%.

Regarding `CCOc1ccccc1NC(=S)N(CCC(C)C)C1CCN(C(C)=O)CC1`, the “hERG current change (%, negative = inhibition) at 1uM” value worked out at 11.3%.

Turning to `CN(CC(=O)Nc1ccccc1Br)C(=O)CNC(=O)c1cccs1`, the “hERG current change (%, negative = inhibition) at 1uM” value turned out to be 10.7%.

(Values after PMC4336329 (PLoS ONE, 2015).)
